{
  "source": "paper PMC4336329",
  "about": "(PLoS ONE, 2015)",
  "note": "The whole screen tested about 310,000 compounds, of which about 2,200 (0.71%) showed an effect of 50% or more. Effects have a minus sign here. This is one part of the list.",
  "data": [
    {"molecular_target": "human ether-à-go-go-related gene (hERG) potassium channel (human, UniProt Q12809)", "sequence (Q12809 whole entry, looked up)": "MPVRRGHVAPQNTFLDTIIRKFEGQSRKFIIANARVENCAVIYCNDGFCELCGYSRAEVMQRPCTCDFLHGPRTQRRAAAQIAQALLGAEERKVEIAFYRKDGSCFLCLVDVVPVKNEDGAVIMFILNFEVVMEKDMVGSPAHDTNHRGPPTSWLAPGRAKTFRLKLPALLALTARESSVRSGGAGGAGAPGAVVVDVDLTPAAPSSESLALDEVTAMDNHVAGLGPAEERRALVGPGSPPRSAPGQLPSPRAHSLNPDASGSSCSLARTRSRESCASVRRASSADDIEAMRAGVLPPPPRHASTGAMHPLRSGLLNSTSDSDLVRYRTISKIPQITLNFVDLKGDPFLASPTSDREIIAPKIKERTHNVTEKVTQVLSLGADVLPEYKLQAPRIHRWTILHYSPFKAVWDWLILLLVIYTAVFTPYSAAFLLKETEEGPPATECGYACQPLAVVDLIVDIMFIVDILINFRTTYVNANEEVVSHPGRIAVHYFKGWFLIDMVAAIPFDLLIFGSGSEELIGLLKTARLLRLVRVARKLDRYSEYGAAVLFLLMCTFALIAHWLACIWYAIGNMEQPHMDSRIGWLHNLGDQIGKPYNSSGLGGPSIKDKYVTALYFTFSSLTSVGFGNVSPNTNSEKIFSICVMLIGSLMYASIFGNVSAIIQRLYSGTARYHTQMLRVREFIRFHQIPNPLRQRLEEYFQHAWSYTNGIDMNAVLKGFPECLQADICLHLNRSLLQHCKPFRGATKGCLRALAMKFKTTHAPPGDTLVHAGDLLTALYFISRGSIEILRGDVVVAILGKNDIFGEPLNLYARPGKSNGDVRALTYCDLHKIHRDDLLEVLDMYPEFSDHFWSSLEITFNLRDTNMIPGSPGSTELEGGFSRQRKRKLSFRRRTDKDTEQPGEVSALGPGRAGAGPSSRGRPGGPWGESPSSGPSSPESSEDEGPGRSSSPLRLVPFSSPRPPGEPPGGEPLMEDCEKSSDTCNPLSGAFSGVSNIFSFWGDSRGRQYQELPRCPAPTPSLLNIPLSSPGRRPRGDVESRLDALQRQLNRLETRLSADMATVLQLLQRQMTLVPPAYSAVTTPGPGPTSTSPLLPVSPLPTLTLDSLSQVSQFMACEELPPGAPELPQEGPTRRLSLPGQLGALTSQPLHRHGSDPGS", "assay": "primary screen, population patch clamp on CHO cells stably expressing hERG", "units": {"hERG current change (%, negative = inhibition) at 1uM": "%"}, "values": [
      {"smiles": "O=C(O)c1ccc2[nH]c3c(c2c1)CSCC3", "hERG current change (%, negative = inhibition) at 1uM": 10.8},
      {"smiles": "COc1ccc(-c2nc(Cc3ccc(Cl)cc3)no2)cc1OC", "hERG current change (%, negative = inhibition) at 1uM": 10.7},
      {"smiles": "c1ccc(NCC2OCc3ccccc3CO2)cc1", "hERG current change (%, negative = inhibition) at 1uM": -0.23},
      {"smiles": "Cc1cc(NC(=O)c2cnn3cccnc23)no1", "hERG current change (%, negative = inhibition) at 1uM": 10.7},
      {"smiles": "COC(CNC(=O)CCc1c(C)nc2c(-c3ccccc3)c(C)nn2c1C)OC", "hERG current change (%, negative = inhibition) at 1uM": 4},
      {"smiles": "CC(C)Oc1ccc(N2CC(C(=O)Nc3ccccn3)CC2=O)cc1", "note": "(stereo not drawn)", "hERG current change (%, negative = inhibition) at 1uM": -11.9},
      {"smiles": "CCOC(=O)COc1ccc2nsnc2c1", "hERG current change (%, negative = inhibition) at 1uM": 16.4},
      {"smiles": "Cc1nc(SCC(=O)Nc2cccc(Cl)c2)n[nH]1", "hERG current change (%, negative = inhibition) at 1uM": 3.54},
      {"smiles": "COC(=O)c1ccc(CSc2nnc(Nc3ccc(OC)cc3)s2)o1", "hERG current change (%, negative = inhibition) at 1uM": -16.3},
      {"smiles": "Cc1c(C(=O)O)oc2c1C(=O)CC(C)(C)C2", "hERG current change (%, negative = inhibition) at 1uM": 6.09},
      {"smiles": "Cc1ccc2nc(N(CCN3CCOCC3)C(=O)CCS(=O)(=O)c3ccccc3)sc2c1.Cl", "hERG current change (%, negative = inhibition) at 1uM": 10.7},
      {"smiles": "Cc1nnc(SCC(=O)Nc2sc3c(c2C#N)CCCC3)[nH]c1=O", "hERG current change (%, negative = inhibition) at 1uM": 0.963},
      {"smiles": "CCOc1nc2c(c(-c3cccs3)c1C#N)Cc1ccccc1-2", "hERG current change (%, negative = inhibition) at 1uM": 11.2},
      {"smiles": "S=C(Nc1ccccc1)N1CCn2c(nc3ccccc32)C1", "hERG current change (%, negative = inhibition) at 1uM": 4.54},
      {"smiles": "Cc1noc(C)c1S(=O)(=O)N1CCCC(C(=O)N2CCN(C3CCCCC3)CC2)C1", "note": "(stereo not drawn)", "hERG current change (%, negative = inhibition) at 1uM": -4.43},
      {"smiles": "CC(=O)OC1(C(F)(F)F)Oc2ccccc2NC1=O", "note": "(stereo not drawn)", "hERG current change (%, negative = inhibition) at 1uM": 9.52},
      {"smiles": "CCCCC[C@H]1CN(CCCC)C(=O)[C@@H]1CC(=O)NCc1ccccc1", "hERG current change (%, negative = inhibition) at 1uM": -25.7},
      {"smiles": "CCOc1ccc(NC(=O)CSc2nccn2Cc2ccco2)cc1", "hERG current change (%, negative = inhibition) at 1uM": -0.291},
      {"smiles": "O=C(CSc1nc2ccccc2nc1SCC(=O)N1CCCCC1)N1CCCCC1", "hERG current change (%, negative = inhibition) at 1uM": 15.6},
      {"smiles": "CCN(CC)CCNC(=O)c1cc2c(=O)n(C)c3ccccc3c2n1C", "hERG current change (%, negative = inhibition) at 1uM": 7.79},
      {"smiles": "O=C(CSc1nc(-c2ccc(F)cc2)cs1)N1CCOCC1", "hERG current change (%, negative = inhibition) at 1uM": -6.82},
      {"smiles": "CCOC(=O)N1CCN(C(=O)CSCc2ccccc2Cl)CC1", "hERG current change (%, negative = inhibition) at 1uM": 7.53},
      {"smiles": "Cl.Nc1ccc2nc[nH]c2c1", "hERG current change (%, negative = inhibition) at 1uM": 17.2},
      {"smiles": "c1ccc(-c2noc(CN3CCCC(OCc4ccccn4)C3)n2)cc1", "note": "(stereo not drawn)", "hERG current change (%, negative = inhibition) at 1uM": 5.58},
      {"smiles": "COc1cccc(OCc2ccc(C(=O)NCC3CCCO3)cc2)c1", "note": "(stereo not drawn)", "hERG current change (%, negative = inhibition) at 1uM": 2.86},
      {"smiles": "CCC(C)Nc1c2c(nc3c(-c4ccccc4)c(C)nn13)CCC2", "note": "(stereo not drawn)", "hERG current change (%, negative = inhibition) at 1uM": -1.9},
      {"smiles": "C=CCc1c(C)nc(SCc2nc3ccccc3c(=O)[nH]2)[nH]c1=O", "hERG current change (%, negative = inhibition) at 1uM": 15.5}
    ]}
  ]
}
